Results published in article PMC6212790.
The list shows a part of the results. At the low end of the ranking the order means little.
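Note: rank score from −0.5 (least bound) to 0.5 (best bound).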

These sequences were tested against T1, GST-Rok-C97-191 (UniProt O34857) (assay: protein binding microarray). Conditions: Rok is a gene silencer of Bacillus subtilis; high values mean tight binding; most listed sequences are background and not binding sites; double strand, one strand shown.
T1 sequence: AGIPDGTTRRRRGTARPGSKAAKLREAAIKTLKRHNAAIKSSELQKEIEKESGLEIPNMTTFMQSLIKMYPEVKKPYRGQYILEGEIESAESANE
GTGGCACA showed a binding signal of -0.254 E-score.
In the case of GCGATACC, the binding signal is reported as 0.122 E-score.
With CAAGCCCG the binding signal was -0.232 E-score.
ATTGTATC showed a binding signal of 0.256 E-score.
AAAGGATT was tested, and the binding signal was -0.186 E-score.
AGTTTATC was tested, and the binding signal was 0.201 E-score.
CTTGTATC was tested, and the binding signal was 0.0186 E-score.
Sequence AACTGCGT has a binding signal of -0.079 E-score.
ATAGAACC was tested, and the binding signal was 0.154 E-score.
For CTGTGTCA, the binding signal was -0.239 E-score.
AAGCCCAA was tested, and the binding signal was -0.21 E-score.
Work on ACTGTCCA yielded a binding signal of -0.0143 E-score.
For GATATTAA, the binding signal was 0.379 E-score.
With GGACGCCC the binding signal was -0.434 E-score.
Sequence AGACATCA has a binding signal of -0.0505 E-score.
CATGCGTA was tested, and the binding signal was -0.12 E-score.
With GGATATAA the binding signal was 0.3 E-score.
Sequence AATTTACA has a binding signal of 0.331 E-score.
With AGAACACT the binding signal was 0.0462 E-score.
In the case of GTGACCAA, the binding signal is reported as -0.126 E-score.
For ACTAAATC, the binding signal was 0.35 E-score.
In the case of AGGTCGAG, the binding signal is reported as 0.000538 E-score.
CGTCTGTA showed a binding signal of 0.14 E-score.
GAAAGCGA was tested, and the binding signal was 0.0717 E-score.
ATGATTCA showed a binding signal of -0.0396 E-score.
AACAAAAC showed a binding signal of 0.035 E-score.
In the case of AAAGATAA, the binding signal is reported as 0.33 E-score.
Work on CACTGCCC yielded a binding signal of -0.245 E-score.
Sequence TATGCGAA has a binding signal of 0.0471 E-score.
With CCGACTCA the binding signal was -0.123 E-score.
In the case of GATTCCAC, the binding signal is reported as -0.131 E-score.
Work on CGTAGCAA yielded a binding signal of 0.0103 E-score.
GCCAGGGC showed a binding signal of -0.407 E-score.
GGGGGTCA showed a binding signal of -0.339 E-score.
GTCAGTCA showed a binding signal of 0.0612 E-score.
Sequence AGTTTAAC has a binding signal of 0.088 E-score.
In the case of CAGTTATG, the binding signal is reported as 0.0833 E-score.
Work on GCACCCAC yielded a binding signal of -0.189 E-score.
CCATCCGC gave a binding signal of -0.213 E-score.
With CCGTGTCA the binding signal was -0.224 E-score.
For CGGGGTTC, the binding signal was -0.0694 E-score.
With CCAGCGCA the binding signal was 0.0638 E-score.
Sequence AGGAGCCA has a binding signal of -0.358 E-score.
TCAACAGA showed a binding signal of -0.0186 E-score.
In the case of AATCTGGC, the binding signal is reported as -0.179 E-score.
In the case of ATTGCCTA, the binding signal is reported as 0.0237 E-score.
For CATGCCGC, the binding signal was -0.228 E-score.
In the case of ACAGCTAC, the binding signal is reported as 0.118 E-score.
Work on CAACCTTA yielded a binding signal of 0.0605 E-score.
Sequence CAAAGGAA has a binding signal of -0.279 E-score.
For AGATTTTG, the binding signal was 0.108 E-score.
Work on CATATCCA yielded a binding signal of 0.188 E-score.
With GGATCGCA the binding signal was -0.162 E-score.
For ATGTAGAA, the binding signal was 0.38 E-score.
For CGGAGCTC, the binding signal was -0.247 E-score.
TCGACCAA showed a binding signal of -0.0422 E-score.
Work on GATCGCCC yielded a binding signal of 0.0523 E-score.
Work on AGGACTGA yielded a binding signal of -0.0415 E-score.
Work on GCCGTGGA yielded a binding signal of -0.168 E-score.
AACTGGTG was tested, and the binding signal was -0.0392 E-score.
AACTCGTC showed a binding signal of 0.0338 E-score.
Work on ATCTTCCC yielded a binding signal of -0.0283 E-score.
Sequence CGATGCAA has a binding signal of 0.000508 E-score.
Work on GTATGCTA yielded a binding signal of 0.191 E-score.
Work on TCATACAA yielded a binding signal of 0.126 E-score.
With CCGTTGAC the binding signal was -0.272 E-score.
For GACTACTC, the binding signal was 0.127 E-score.
Sequence AAAATACC has a binding signal of 0.357 E-score.
In the case of GCGCTAAC, the binding signal is reported as 0.141 E-score.
Work on ACTCGTAT yielded a binding signal of 0.0526 E-score.
Work on AGGCTTAC yielded a binding signal of -0.296 E-score.
In the case of ACTCGTAA, the binding signal is reported as 0.176 E-score.
Work on ATTTGACG yielded a binding signal of -0.02 E-score.
GAACTGCC gave a binding signal of 0.00234 E-score.
Sequence GCATATAA has a binding signal of 0.0606 E-score.
GGGTCTGA was tested, and the binding signal was -0.0346 E-score.
In the case of CCGAATCA, the binding signal is reported as -0.0264 E-score.
Sequence CGGGCAAC has a binding signal of -0.269 E-score.
In the case of CCCCTCGC, the binding signal is reported as -0.146 E-score.
For CATTCCAG, the binding signal was -0.144 E-score.
For CACGCAGA, the binding signal was 0.0214 E-score.
For AACAAGCC, the binding signal was -0.0361 E-score.
CGGGCCAG gave a binding signal of -0.274 E-score.
ACGCGATA gave a binding signal of 0.141 E-score.
For CTGGGAAA, the binding signal was -0.136 E-score.
Work on CGCCCCTA yielded a binding signal of -0.241 E-score.
AGCAACAT showed a binding signal of 0.0841 E-score.
Sequence GCGGTGTA has a binding signal of 0.00165 E-score.
With ATGATTGG the binding signal was -0.187 E-score.
AATGGTTA gave a binding signal of 0.162 E-score.
Sequence CCAATTAA has a binding signal of 0.00432 E-score.
CGCGCCGC was tested, and the binding signal was -0.298 E-score.
With AGGGAGTG the binding signal was -0.264 E-score.
ATTGCTAC showed a binding signal of 0.184 E-score.
